Results reported in the supplement of paper PMC5895741.

B1: MS2 coat protein; the commonest letter at each place (parent)
chain: MASNFTQFVLVDNGGTGDVTVAPSNFANGVAEWISSNSRSQAYKVTCSVRQSSAQNRKYTIKVEVPKVATQTVGGVELPVAAWRSYLNMELTIPIFATNSDCELIVKAMQGLLKDGNPIPSAIAANSGIY

Variants of: B1
Assay: apparent fitness score (VLP assembly selection enrichment vs plasmid library) (log10 ratio); higher = better expression / assembly into well-formed VLPs
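Also: counts from Illumina MiSeq reads, cDNA of packaged RNA versus plasmid DNA taken before selection, each replicate independent from library construction onward, expression induced with 0.1% arabinose.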

Variant	apparent fitness score (log10)
MASNFTQFVLVDNGGTGDVTVAPSNFANGVAEWISSNSRSQAYKVTCCVRQSSAQNRKYTIKVEVPKVATQTVGGVELPVAAWRSYLNMELTIPIFATNSDCELIVKAMQGLLKDGNPIPSAIAANSGIY [S48C]	0.671
MASNFTQFVLVDNGGTGDVTVAPSNFANGVAEWISSNSRSQAYKVTCDVRQSSAQNRKYTIKVEVPKVATQTVGGVELPVAAWRSYLNMELTIPIFATNSDCELIVKAMQGLLKDGNPIPSAIAANSGIY [S48D]	< -4
MASNFTQFVLVDNGGTGDVTVAPSNFANGVAEWISSNSRSQAYKVTCEVRQSSAQNRKYTIKVEVPKVATQTVGGVELPVAAWRSYLNMELTIPIFATNSDCELIVKAMQGLLKDGNPIPSAIAANSGIY [S48E]	< -4
MASNFTQFVLVDNGGTGDVTVAPSNFANGVAEWISSNSRSQAYKVTCFVRQSSAQNRKYTIKVEVPKVATQTVGGVELPVAAWRSYLNMELTIPIFATNSDCELIVKAMQGLLKDGNPIPSAIAANSGIY [S48F]	0.271
MASNFTQFVLVDNGGTGDVTVAPSNFANGVAEWISSNSRSQAYKVTCGVRQSSAQNRKYTIKVEVPKVATQTVGGVELPVAAWRSYLNMELTIPIFATNSDCELIVKAMQGLLKDGNPIPSAIAANSGIY [S48G]	-1.02
MASNFTQFVLVDNGGTGDVTVAPSNFANGVAEWISSNSRSQAYKVTCHVRQSSAQNRKYTIKVEVPKVATQTVGGVELPVAAWRSYLNMELTIPIFATNSDCELIVKAMQGLLKDGNPIPSAIAANSGIY [S48H]	-0.0475
MASNFTQFVLVDNGGTGDVTVAPSNFANGVAEWISSNSRSQAYKVTCIVRQSSAQNRKYTIKVEVPKVATQTVGGVELPVAAWRSYLNMELTIPIFATNSDCELIVKAMQGLLKDGNPIPSAIAANSGIY [S48I]	< -4
MASNFTQFVLVDNGGTGDVTVAPSNFANGVAEWISSNSRSQAYKVTCKVRQSSAQNRKYTIKVEVPKVATQTVGGVELPVAAWRSYLNMELTIPIFATNSDCELIVKAMQGLLKDGNPIPSAIAANSGIY [S48K]	0.37
MASNFTQFVLVDNGGTGDVTVAPSNFANGVAEWISSNSRSQAYKVTCLVRQSSAQNRKYTIKVEVPKVATQTVGGVELPVAAWRSYLNMELTIPIFATNSDCELIVKAMQGLLKDGNPIPSAIAANSGIY [S48L]	-0.169
MASNFTQFVLVDNGGTGDVTVAPSNFANGVAEWISSNSRSQAYKVTCMVRQSSAQNRKYTIKVEVPKVATQTVGGVELPVAAWRSYLNMELTIPIFATNSDCELIVKAMQGLLKDGNPIPSAIAANSGIY [S48M]	< -4
MASNFTQFVLVDNGGTGDVTVAPSNFANGVAEWISSNSRSQAYKVTCNVRQSSAQNRKYTIKVEVPKVATQTVGGVELPVAAWRSYLNMELTIPIFATNSDCELIVKAMQGLLKDGNPIPSAIAANSGIY [S48N]	0.727
MASNFTQFVLVDNGGTGDVTVAPSNFANGVAEWISSNSRSQAYKVTCPVRQSSAQNRKYTIKVEVPKVATQTVGGVELPVAAWRSYLNMELTIPIFATNSDCELIVKAMQGLLKDGNPIPSAIAANSGIY [S48P]	< -4
MASNFTQFVLVDNGGTGDVTVAPSNFANGVAEWISSNSRSQAYKVTCQVRQSSAQNRKYTIKVEVPKVATQTVGGVELPVAAWRSYLNMELTIPIFATNSDCELIVKAMQGLLKDGNPIPSAIAANSGIY [S48Q]	-0.153
MASNFTQFVLVDNGGTGDVTVAPSNFANGVAEWISSNSRSQAYKVTCRVRQSSAQNRKYTIKVEVPKVATQTVGGVELPVAAWRSYLNMELTIPIFATNSDCELIVKAMQGLLKDGNPIPSAIAANSGIY [S48R]	0.636
MASNFTQFVLVDNGGTGDVTVAPSNFANGVAEWISSNSRSQAYKVTCTVRQSSAQNRKYTIKVEVPKVATQTVGGVELPVAAWRSYLNMELTIPIFATNSDCELIVKAMQGLLKDGNPIPSAIAANSGIY [S48T]	0.343
MASNFTQFVLVDNGGTGDVTVAPSNFANGVAEWISSNSRSQAYKVTCVVRQSSAQNRKYTIKVEVPKVATQTVGGVELPVAAWRSYLNMELTIPIFATNSDCELIVKAMQGLLKDGNPIPSAIAANSGIY [S48V]	0.08
MASNFTQFVLVDNGGTGDVTVAPSNFANGVAEWISSNSRSQAYKVTCWVRQSSAQNRKYTIKVEVPKVATQTVGGVELPVAAWRSYLNMELTIPIFATNSDCELIVKAMQGLLKDGNPIPSAIAANSGIY [S48W]	-0.997
MASNFTQFVLVDNGGTGDVTVAPSNFANGVAEWISSNSRSQAYKVTCYVRQSSAQNRKYTIKVEVPKVATQTVGGVELPVAAWRSYLNMELTIPIFATNSDCELIVKAMQGLLKDGNPIPSAIAANSGIY [S48Y]	< -4
MASNFTQFVLVDNGGTGDVTVAPSNFANGVAEWISSNSRSQAYKVTCSARQSSAQNRKYTIKVEVPKVATQTVGGVELPVAAWRSYLNMELTIPIFATNSDCELIVKAMQGLLKDGNPIPSAIAANSGIY [V49A]	0.285
MASNFTQFVLVDNGGTGDVTVAPSNFANGVAEWISSNSRSQAYKVTCSCRQSSAQNRKYTIKVEVPKVATQTVGGVELPVAAWRSYLNMELTIPIFATNSDCELIVKAMQGLLKDGNPIPSAIAANSGIY [V49C]	0.463
MASNFTQFVLVDNGGTGDVTVAPSNFANGVAEWISSNSRSQAYKVTCSDRQSSAQNRKYTIKVEVPKVATQTVGGVELPVAAWRSYLNMELTIPIFATNSDCELIVKAMQGLLKDGNPIPSAIAANSGIY [V49D]	-0.25
MASNFTQFVLVDNGGTGDVTVAPSNFANGVAEWISSNSRSQAYKVTCSERQSSAQNRKYTIKVEVPKVATQTVGGVELPVAAWRSYLNMELTIPIFATNSDCELIVKAMQGLLKDGNPIPSAIAANSGIY [V49E]	-0.766
